SMILES strings stand for the structures.

The term melting point denotes the temperature of the solid-liquid transition. `CCN1C(=O)C(NC(=O)C(F)(F)F)CCc2c1ccc(Nc1ncc(Cl)c(Nc3ccc(N(C)C)cc3OC)n1)c2OC` (stereo unspecified) registered a melting point of 192 to 193 °C.

The values above are taken from a melting point compilation (Tetko et al.; mined from patent text by program, amines drawn as free bases though some values may be those of a salt).
